Assay results taken from PubChem BioAssay (NCATS).
The shares of active, inactive and inconclusive entries below differ from those in the screen. For part of these data: Potencies of inconclusive entries are doubtful fits and often do not repeat. For part of these data: “Side channel” marks fits to a control or component signal instead of the main read-out. Activity calls are given as the source filed them. Unless noted, calls come from the whole dose curve; as a rule, active = well fitted curve in either direction with a large enough effect (not every such curve was filed as active); inconclusive = small, poorly fitted or top-dose-only effect, or another doubt; inactive = flat fitted curve, though single readings scatter.

Columns and labels:
[1] = AP1 Signaling Pathway (AID 357); conditions: ME-180 AP-1-bla reporter, EGF-induced, beta-lactamase ratio, 5 h; at 17.2 µM (top of the series) unless noted;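 note: ME-180 reporter cells stimulated with EGF at its EC50 level; top concentration of the series differs between compounds; % is set by controls: 0 for no effect and ±100 for the full control effect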
Method in brief: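 Read-out was the 460nm/530nm emission ratio (excitation 405nm) after CCF4 loading for 2.5 hours at room temperature. Cells carried an AP-1-driven beta-lactamase reporter, were stimulated with EC50 EGF plus compound for 5 hours, and AC50 values came from titrations.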

[2] = NFAT Signaling Pathway (AID 444); conditions: Jurkat NFAT-bla M1, carbachol, beta-lactamase ratio, 5 h; at 17.2 µM (top of the series) unless noted;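 note: carbachol stimulus at about its EC50 of 1 µM final; % is set by controls: 0 for no effect and ±100 for the full control effect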
Method in brief: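 Jurkat cells with NFAT-driven β-lactamase reporter and co-expressed M1 receptor, stimulated with carbachol (final 1 uM, ~EC50), compound titration, 5 h at 37 °C. CCF4 loaded 1 h at RT; 460/530 nm ratio gave %activity and AC50.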

[3] = qHTS Assay for Identification of Small Molecule Agonists for Hypoxia Response Element Signaling Pathway (AID 914; active = well fitted activation curve with a large enough effect in the signal ratio, with a control signal flat, not every such curve was filed as active; inconclusive = small, poorly fitted or top-dose-only effect, or effect the other way, or a change in a side signal; the % refers to the signal ratio; note: potency is the fitted concentration of half-maximal effect; for activation: top concentration of the series differs between compounds; % of control where 0% means no effect); conditions: ME-180 (cervical carcinoma) HRE-bla reporter, beta-lactamase ratio, CoCl2, 17 h; activation: hits give high values
Method in brief: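 AC50 values come from titration-series %Activity, taken as the 460/530nm ratio of CCF4 fluorescence (excitation 405nm). CellSensor HRE-bla ME-180 cells were treated 17 hours at 37 C with compound plus an EC50 level of CoCl2.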
Tags give direction and shape of the fitted curve or compound fluorescence and quenching.

Row | SMILES | activity change, negative = inhibition [1] | activity change, negative = inhibition [2] | activation [3] | Potency [3]
1 | Cc1ccc(-n2ncc3c(NCc4ccc5c(c4)OCO5)ncnc32)c(C)c1 | inconclusive: -41.3% [inhibitor] | inactive: 8.44% | inconclusive: -17.5% | –
2 | CCc1ccc(-c2cn3nc(C)c(C)nc3n2)cc1 | inactive: 0.521% | inconclusive: 31.3% [activator] | – | active: 10 µM
3 | CN(CCNC(=O)c1ccc(/C=N/O)nc1)Cc1ccccc1 | inactive: 0.297% | inactive: -21.1% | inactive: 9.65% | –
4 | CCN(CC)c1ccc(-c2nn3c(-c4cccnc4)nnc3s2)cc1 | inconclusive: -58.1% [inhibitor] | inconclusive: -107% [inhibitor] | – | inconclusive: 7.94 µM [inhibitor, partial curve]
5 | COC(=O)c1[nH]c2cc(OC)ccc2c1NC(=O)CN1CCN(c2cccc(C)c2)C(C)C1 (configuration not stated) | inconclusive: -31.9% [inhibitor] | inconclusive: -70.9% [inhibitor] | – | inconclusive: 12.6 µM [inhibitor, single point]
6 | CCOC(=O)N1CCN(c2ncnc3c2[nH]c2ccc(OC)cc23)CC1 | inconclusive: -36.9% [inhibitor] | inconclusive: 34.8% [activator] | – | inconclusive: 0.631 µM [inhibitor, partial curve]
7 | CCC1=C(C[C@H]2NCCc3ccccc32)C[C@@H]2c3cc(OC)c(OC)cc3CCN2C1 | inconclusive: -49.9% [inhibitor] [at 7.69 µM] | inconclusive: -83.4% [inhibitor] [at 7.69 µM] | – | inconclusive: 3.16 µM [inhibitor, single point]
8 | N#Cc1ccc(-c2ccco2)nc1SCC(=O)c1ccc(Cl)cc1 | inconclusive: 5.62% [inhibitor] | inconclusive: -77.8% [inhibitor] | – | inconclusive: 3.16 µM [inhibitor, full curve]
9 | C=CCOc1nc(-c2ccncc2)nc2ccccc12 | inconclusive: -30.5% [inhibitor] | inconclusive: -78.3% [inhibitor] | inconclusive: -35.2% | –
10 | Cc1nc(Sc2cccn2C)c(C(F)(F)F)c(=O)[nH]1 | inactive: -5.32% | inconclusive: 11.3% [inhibitor] | inactive: 6.77% | –
11 | CCCCc1cc(=O)oc2c(CN(C)C)c(O)c(Cl)cc12 | inactive: -6.67% | inconclusive: 61.7% [activator] | – | inconclusive: 3.98 µM [activator, single point]
12 | N#CC1=C(SCc2ccccc2)NC2=C(C(=O)CCC2)C1c1ccc2c(c1)OCO2 (configuration not stated) | inconclusive: -35.3% [inhibitor] | inconclusive: -32.2% [inhibitor] | inconclusive: -19.1% | –
13 | COc1ccc(CNc2oc(COc3ccc(Cl)cc3)nc2C#N)cc1 | inconclusive: -60.6% [inhibitor] | inconclusive: -96.9% [inhibitor] | – | inconclusive: 10 µM [cytotoxic, side channel, partial curve]
14 | COCCNc1ncnc2ccc(-c3cccnc3)cc12 | inconclusive: -35.1% [inhibitor] [at 7.69 µM] | inconclusive: 47.4% [activator] [at 7.69 µM] | – | inconclusive: 1.58 µM [inhibitor, partial curve, poor fit]
15 | COc1ccc(C2C=C(c3ccc(C)cc3)Nc3ncnn32)cc1 (configuration not stated) | inconclusive: -30.3% [inhibitor] | inconclusive: -33.3% [inhibitor] | inconclusive: 22% | –
16 | CC(C)(C)C1=Nn2c(nnc2-c2ccccn2)SC1 | inactive: 4.11% | inactive: 0.351% | inactive: -1.04% | –
17 | CCOC(=O)C1CCN(c2nc3ccccc3nc2C(C#N)C(=O)NCCc2ccccc2)CC1 (configuration not stated) | inconclusive: -46.4% [inhibitor] | inconclusive: -30.1% [inhibitor] | – | inconclusive: 10 µM [cytotoxic, side channel, partial curve]
18 | Cn1cccc1C(=O)N1CCC[C@@]2(CCN(c3ccncc3)C2)C1 | inactive: -2.65% [at 7.69 µM] | inactive: -12.6% [at 7.69 µM] | inconclusive: 3.73% | –
19 | COc1ccc(C(=O)CCN2CCCCCC2)cc1 | inconclusive: -65.5% [inhibitor] | inconclusive: -73.3% [inhibitor] | inconclusive: -19.4% | –
